# According to the supplement of paper PMC11417369:
# The list shows a part of the results.
# Tested on: PfHDP1 homeodomain (GST-tagged)
# Assay: gcPBM binding intensity (ln(normalized median fluorescence intensity)); higher = stronger DNA binding
# How it was run: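 Binding intensity is the highest Masliner-normalised natural-log median intensity over replicate spots in either probe orientation. To obtain it, GST-tagged P. falciparum DNA-binding domains made in E. coli were incubated for 1 h on an Agilent 4 × 180k array of primer-extended double-stranded 36-bp intergenic genomic probes plus negative controls. Detection used Alexa488 anti-GST antibody with scanning at 488 nm.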
row,Sequence,gcPBM binding intensity (ln)
1,ATACTGTATGAAAGCACACATACTTATTACTAACAT [CACACA_site4164],6.6
2,CAAATAACAAAATAATGTACATTTATACTTTTTTTT [XGTACX_site943],6.32
3,TATACATATTTGTATTGTACATAAACTAAATCTTCA [XGTACX_site610],5.98
4,TTCTATGAATTCATAGTGCAAATGAGTTATTTTTTC [GTGCAC_site9709],8.72
5,TTATTATTGTTATGTTGTACTTTTACAAACTTTTTG [XGTACX_site8797],6.61
6,AAGAAAATAGGGTTCATAGGATTATACTTTTGGAAT [TGCATGCA_negctrl_site80],6.1
7,TAATAAAAGATATATACACACAAATAAATAAATAAA [CACACA_site7818],6.79
8,AAATATAAAAAAAATATATAATTTTTACATCGAATT [CACACA_negctrl_site544],6.11
9,ATAATATAAACATATTGTACACATATATTGCTATTT [XGTACX_site2799],6.93
10,AAAAAAAAATATATATATATATATATAAATAAATTT [CACACA_negctrl_site519],6.66
11,ACATCAAGCAGACACACACACACACCCACCCACCGA [CACACA_site371],6.5
12,CTTTTTTAAATTATTGCACACAAAAATGAAAGGAAA [CACACA_site8412],10.1
13,ATTTATTTATATAGAAGTACATATTTATTTATATAT [XGTACX_site6283],6.14
14,TAGAAATATAATTAATGTACATATGATATTATATAT [XGTACX_site923],6.42
15,TATTTTATCTAAGGATGTACATTATTAAGAAAATGT [XGTACX_site6123],6.09
16,ATATATTTATTAAGGTGTACAAAAATTATGTTGCAT [XGTACX_site7546],6.81
17,ATATAATGTGTAGGCCGTATTTACGTTTGGCAATCA [CACACA_negctrl_site1130],6.37
18,TATACAATATAAAATACACACGCACCCAAAAAAAAA [CACACA_site9174],7.15
19,ATTTTTTTATTTGATTGTACAATTTTCTTTCAAAAT [XGTACX_site2902],7.19

row,Sequence,gcPBM binding intensity (ln)
1,TATAATATAATATATATATATATATATATATAAGAA [CACACA_negctrl_site78],6.99
2,TTCATATAAATACATGCACACAAAAATATCAATACA [CACACA_site8753],8.91
3,ATATATTTTATTACCAGTACATATATTAAAATAATA [XGTACX_site8440],6.38
4,ATCTATTTCTATTGTTGTACTTATTTTTCATTGTTT [XGTACX_site6942],7.18
5,CGATTACTAATTTTTAGTACATATAATCAATATGTA [XGTACX_site7857],5.83
6,ATGTAGCCTTACGCTTGTACGAATATCTTAATTTTT [XGTACX_site4331],6.09
7,AGGGTTACAAGAGGAACACACAAAAAAATAAATAAA [CACACA_site1436],6.86
8,AAAAAAAATAGACACACACACATACACATAAATATA [CACACA_site7742],6.93
9,TTTATATTACAATAATATATTAAAAAATAAAATATA [TGCATGCA_negctrl_site18],6.17
10,TTTGTAATAAACTACTTTTTTTTTTTTTTTTTTTTT [CACACA_negctrl_site571],6.72
11,ATTAAATCTATATATACACACATGTTTGGTATATTC [CACACA_site2657],6.88
12,AAACAAAATGGTAACACACACATATATAAATATGTA [CACACA_site6994],6.33
13,TAAGAAATAAATAGTACACACATAGACACCCACCCA [CACACA_site8429],7.64
14,CCTAAATATTTTTTATGTACATATTTATCTAAATTT [XGTACX_site6835],6.87
15,TGAGGAAACATGAGATGTACATATAAATTTTTTTTT [XGTACX_site2595],5.93
16,ATAGAAATTATAAATAGTACATAATAAAAATGAGCA [XGTACX_site822],6.73
17,ATTAAAGAGATATATACACACATTATGGGGGAATAA [CACACA_site6226],7.13
18,TATTATAAAGAAATTACACACATGCAATGAAAAAAA [CACACA_site1697],6.82
19,TCGTTTCCTTAAAATTGTACTTTTTTTTTTTTTTTT [XGTACX_site64],6.54

row,Sequence,gcPBM binding intensity (ln)
1,TAATGATAAATACATACACACAAAAAATAATATATA [CACACA_site2576],6.86
2,TGTTATTATTTGTACACACACATATAGATCCTTGTT [CACACA_site7667],7.07
3,AGAGTATATATATATGCATGCATATCTCATATTTAT [TGCATGCA_site509],6.71
4,AATGTGGTATTTACAAAAAGGCTTTATACTTAAAAA [XGTACX_negctrl_site566],6.24
5,TGATTATCCTATATATATTTCATAATGGAAAAAAAT [TGCATGCA_negctrl_site444],6.3
6,AAAAATAGTCTTCTTGCACTTTTTAATTTATTTTAA [CACACA_negctrl_site1322],6.76
7,TATATTTTGTTTTTGTGTACATATTGGTAGTTATTT [XGTACX_site7659],6.95
8,CTTTTCATCTTCTTAACACACAAAAAAAAAAAAAAA [CACACA_site3886],6.45
9,TGGGAATAACGACACACACACACACGGATATAAATA [CACACA_site7633],7.01
10,AAAAACGATTAATGTGTACACACATAGTTATAAACA [CACACA_site8659],7.04
11,TTTTTTTTTTTTTAATGTACAAATATGGTGACAAAA [XGTACX_site8709],6.63
12,ATATATATATATATATGTACATATATTTTCTTTTTG [XGTACX_site6017],9.35
13,TTGTTCTATAATTATACATGCATTAACAGAGTAAAA [TGCATGCA_site909],7.99
14,AGGATAACATACAAAAGTACATAAAACTAAAAAAAC [XGTACX_site26],7.02
15,AAGAAAATATAACAAAGTAAAAACATATTATATATA [TGCATGCA_negctrl_site248],6.12
16,TATATATATTTTTGAAGTACTTATTACACTAGCATT [XGTACX_site8965],6.74
17,AATGTGCTCGCTATTACACACTCATTGGGATAAAAT [CACACA_site8627],7.89
18,AGTAACAATTATTATGCATGTACAAATAATCATTTT [TGCATGCA_site867],6.45
